# According to the supplement of paper PMC8728848:
# Some of the results follow.
# B1: Gal 2 (Homo sapiens), P05162 (protein)
# chain: MTGELEVKNMDMKPGSTLKITGSIADGTDGFVINLGQGTDKLNLHFNPRFSESTIVCNSLDGSNWGQEQREDHLCFSPGSEVKFTVTFESDKFKVKLPDGHELTFPNRLGHSHLSYLSVRGGFNMSSFKLKE
# Key:
# Experiment in all cases: glycan array binding signal (z-score within array); higher = stronger binding
# Conditions in all cases: glycan notation: IUPAC condensed, linker removed
# [1] = target: Neu5Ac(a2-3)Gal(b1-4)GlcNAc(b1-3)Gal(b1-4)GlcNAc(b1-3)GalNAc
# How it was run: (§1)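 The binding signal is a Z-score computed within each array and averaged over linkers. Arrays of the same protein sequence at different concentrations or buffers were also averaged together. Data originate from 3228 arrays in the Consortium for Functional Glycomics database, kept only where the protein sequence was available.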
# [2] = target: Neu5Ac(a2-3)Gal(b1-4)GlcNAc(b1-3)Gal(b1-4)GlcNAc(b1-3)[Neu5Ac(a2-3)Gal(b1-4)GlcNAc(b1-3)Gal(b1-4)GlcNAc(b1-6)]GalNAc
# How it was run: as §1
# [3] = target: Neu5Ac(a2-3)Gal(b1-4)GlcNAc(b1-3)Gal(b1-4)GlcNAc(b1-6)[Gal(b1-3)]GalNAc
# How it was run: as §1
# [4] = target: Neu5Ac(a2-3)Gal(b1-4)GlcNAc(b1-3)Gal(b1-4)[Fuc(a1-3)]GlcNAc
# How it was run: as §1
# [5] = target: Neu5Ac(a2-3)Gal(b1-4)GlcNAc(b1-3)GalNAc
# How it was run: as §1
# [6] = target: Neu5Ac(a2-3)Gal(b1-4)GlcNAc(b1-3)[Neu5Ac(a2-3)Gal(b1-4)GlcNAc(b1-6)]GalNAc
# How it was run: as §1
# [7] = target: Neu5Ac(a2-3)Gal(b1-4)GlcNAc(b1-6)GalNAc
# How it was run: as §1
# [8] = target: Neu5Ac(a2-3)Gal(b1-4)GlcNAc(b1-6)[Gal(b1-3)]GalNAc
# How it was run: as §1
# [9] = target: Neu5Ac(a2-3)Gal(b1-4)GlcNAc(b1-6)[Neu5Ac(a2-3)Gal(b1-3)]GalNAc
# How it was run: as §1
# [10] = target: Neu5Ac(a2-3)Gal(b1-4)GlcNAc6S
# How it was run: as §1
# [11] = target: Neu5Ac(a2-3)Gal(b1-4)[Fuc(a1-3)]GlcNAc
# How it was run: as §1
# [12] = target: Neu5Ac(a2-3)Gal(b1-4)[Fuc(a1-3)]GlcNAc(b1-2)Man
# How it was run: as §1
# [13] = target: Neu5Ac(a2-3)Gal(b1-4)[Fuc(a1-3)]GlcNAc(b1-3)Gal
# How it was run: as §1
# [14] = target: Neu5Ac(a2-3)Gal(b1-4)[Fuc(a1-3)]GlcNAc(b1-3)Gal(b1-4)GlcNAc
# How it was run: as §1
# [15] = target: Neu5Ac(a2-3)Gal(b1-4)[Fuc(a1-3)]GlcNAc(b1-3)Gal(b1-4)[Fuc(a1-3)]GlcNAc(b1-3)Gal(b1-4)[Fuc(a1-3)]GlcNAc
# How it was run: as §1
# [16] = target: Neu5Ac(a2-3)Gal(b1-4)[Fuc(a1-3)]GlcNAc(b1-3)GalNAc
# How it was run: as §1
# [17] = target: Neu5Ac(a2-3)Gal(b1-4)[Fuc(a1-3)]GlcNAc(b1-6)[Gal(b1-3)]GalNAc
# How it was run: as §1
# [18] = target: Neu5Ac(a2-3)Gal(b1-4)[Fuc(a1-3)]GlcNAc(b1-6)[Neu5Ac(a2-3)Gal(b1-3)]GalNAc
# How it was run: as §1
# [19] = target: Neu5Ac(a2-3)Gal(b1-4)[Fuc(a1-3)]GlcNAc6S
# How it was run: as §1
# [20] = target: Neu5Ac(a2-3)Gal6S(b1-4)GlcNAc
# How it was run: as §1
# [21] = target: Neu5Ac(a2-3)Gal6S(b1-4)[Fuc(a1-3)]GlcNAc
# How it was run: as §1
# [22] = target: Neu5Ac(a2-3)GalNAc
# How it was run: as §1
binder,measurement,setting,value
B1,glycan array binding signal (z-score),[1],-0.256
same,glycan array binding signal (z-score),[2],-0.218
same,glycan array binding signal (z-score),[3],-0.213
same,glycan array binding signal (z-score),[4],-0.282
same,glycan array binding signal (z-score),[5],-0.029
same,glycan array binding signal (z-score),[6],-0.302
same,glycan array binding signal (z-score),[7],-0.236
same,glycan array binding signal (z-score),[8],-0.191
same,glycan array binding signal (z-score),[9],-0.181
same,glycan array binding signal (z-score),[10],-0.234
same,glycan array binding signal (z-score),[11],-0.284
same,glycan array binding signal (z-score),[12],-0.061
same,glycan array binding signal (z-score),[13],-0.27
same,glycan array binding signal (z-score),[14],-0.229
same,glycan array binding signal (z-score),[15],-0.23
same,glycan array binding signal (z-score),[16],0.065
same,glycan array binding signal (z-score),[17],-0.193
same,glycan array binding signal (z-score),[18],0.14
same,glycan array binding signal (z-score),[19],-0.251
same,glycan array binding signal (z-score),[20],-0.225
same,glycan array binding signal (z-score),[21],-0.281
same,glycan array binding signal (z-score),[22],-0.299
